Drawing on PMC12136788, this text covers binding signal for 6 molecules.

B1: 35659168_35659857_317_CDS_ENSG00000100281_ENST00000216106|human|control|control (ssRNA)
RNA: GGGAGUUCUACAGUCCGACGAUCGUAAUCAUCAGAGGAGUGCUUCCUCUUCUUCUUGUGUGUGUCCGUCCCCAAGAAGUAAAGUUCACUAUCCUUCAACUUCUUCUUGGAAGAAUUCCUGACCUGAGCAGCAAUUUCUUCCUCCAACAGAGGAUUGAGCAUCA
B2: chr11:94923035:94923036:-_ENSG00000149212_ENST00000536441|hu_hu|motif|central (ssRNA)
RNA: GGGAGUUCUACAGUCCGACGAUCUCCAGUUUUGACAAGUUUCUGAAUGUGCUCUUUUGUGAUCAGCCAAGGUCGAUGUGCGGGCAGCUUAUUAAUUUCAUUAAGAUUUUUCAGUCUUUGUGGCACAUAUUCCAAACCAUUCAACAACAGAGGAUUGAGCAUCA
B3: chr16:47694578:47694579:+_ENSG00000102893_ENST00000566044|hu_hu|FALSE|FALSE (ssRNA)
RNA: GGGAGUUCUACAGUCCGACGAUCUUCAGGAGCACUAGGGGUGCUGCUUUGCCGUUUGACUUUUGAAUGUUUGGGAGGUUCUAGUUCCUCAAAACUCUUAAAUUCUGGAAGCUCUUCUGUGUCACUGAUUCGUAGGAAAUCAAGCAACAGAGGAUUGAGCAUCA
B4: 100033694_100036846_4142_CDS_ENSMUSG00000023026_ENSMUST00000100203|mouse|control|control (ssRNA)
RNA: GGGAGUUCUACAGUCCGACGAUCCCGUUCCACAAGACGGACCCUGUCAUGUCUCAGCGACUUCAGAUCCACAUACACAGUUGUUGGAUCCGGCCCUGAGGUUCCCUGUAAACAUAUUGCUACAUUGACUCUGGAUCCAAAAGUCAACAGAGGAUUGAGCAUCA
B5: 107147277_107148150_654_CDS_ENSG00000125266_ENST00000245323|human|control|control (ssRNA)
RNA: GGGAGUUCUACAGUCCGACGAUCACCAGCUUCUAGUUCUGGACGUCUUGUUGGAUCUUUAUUCCUGGUUGAUCCAGCAGAACUUGCAUCUUGUCCAACUUUCAUGAGGAUCUUCAUGGCUCUUGUCUGGCACACCCCUCCCUCCAACAGAGGAUUGAGCAUCA
B6: chr16:17261293:17261294:+_ENSMUSG00000050240_ENSMUST00000090190|mus_mus|motif|central (ssRNA)
RNA: GGGAGUUCUACAGUCCGACGAUCGACAUGCUCAGUGAGGGGCUCUGCUCCUAGUCCCUGAUUUUCUGCAGAUGAGGGUACCGGCAGCCUGGGAGGCCACACAGACCUUGUGUCCUAGGCCUUAAGUGCUGGUAGGUGGGUGGGCAACAGAGGAUUGAGCAUCA

The other results are listed elsewhere or left out.

In this assay the target is T1, UNK ZnF1-3 (human, UniProt Q9C0B0 31-174).
T1 sequence: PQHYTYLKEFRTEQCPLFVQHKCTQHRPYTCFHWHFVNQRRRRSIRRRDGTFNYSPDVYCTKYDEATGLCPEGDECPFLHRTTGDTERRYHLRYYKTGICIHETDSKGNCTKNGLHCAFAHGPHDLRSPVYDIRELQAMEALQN
Description: nsRBNS (natural sequence RNA bind-n-seq); RBNS binding buffer (assumed for nsRBNS): 25 mM Tris pH 7.5, 150 mM KCl, 3 mM MgCl2, 0.01% Triton X-100, 500 ug/ml BSA, 20 U/ml SUPERase-In, 4 C; UNK is unkempt and MSI1 is Musashi-1; names of the RNAs are library labels; protein concentration not given here; high values mean tight binding.
In the case of B1, the binding signal came to 0.629 enrichment R.

On to B2, for which the binding signal is 1.04 enrichment R.

Regarding B3, the binding signal was found to be 0.862 enrichment R.

The molecule B4 came in with a binding signal of 0.817 enrichment R.

B5 registered a binding signal of 0.434 enrichment R.

B6: the binding signal amounted to 0.68 enrichment R.
